# From the supplement of paper PMC7826260
# This is one part of the list. Cleavage of a single-stranded DNA pool by Rep nickase domains was read by sequencing for 1 h at 37 °C with 3 µM enzyme; only the middle of the 90-letter strands is printed. Uncut reads are compared with the no-enzyme pool on a log2 scale; uncut sequences lie near 0, cut ones below; no hit call is given. The scaling is to total reads, so uncut sequences can rise above 0 when many others are cut.
# Tests used:
# Experiment in all cases: uncleaved DNA left, log2 of reads against the no-enzyme library (log2 ratio); higher = less cleavage (more negative = more Rep cleavage of the k-mer); sequences stand for … in CTCGTCCG…ACCGGAGA
# [1] = test system: T1, Rep nickase domain of Muscovy duck circovirus
# T1 sequence (protein, residues 1-111, tag omitted): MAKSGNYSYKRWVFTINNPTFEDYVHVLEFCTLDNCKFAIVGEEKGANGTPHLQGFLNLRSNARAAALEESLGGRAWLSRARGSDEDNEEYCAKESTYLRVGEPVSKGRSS
# Protocol: (§1)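 A pool of 90-nt single-stranded DNAs with seven random bases just before the constant AC of the nick site (name = the seven bases) was cut by 3 µM recombinant His6-SUMO-tagged Rep nickase domain (300 nM DNA, 50 mM HEPES pH 8.0, 50 mM NaCl, 1 mM MnCl2, 1 h, 37 °C, three replicates). Uncut DNA was amplified and sequenced.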
# [2] = test system: T2, Rep nickase domain of banana bunchy top virus
# T2 sequence (protein, residues 1-94, tag omitted): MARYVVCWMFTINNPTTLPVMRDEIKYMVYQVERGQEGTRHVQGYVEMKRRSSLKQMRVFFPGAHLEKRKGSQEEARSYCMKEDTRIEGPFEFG
# Protocol: as §1
# [3] = test system: T3, Rep nickase domain of cabbage leaf curl virus
# T3 sequence (protein, residues 1-116, tag omitted): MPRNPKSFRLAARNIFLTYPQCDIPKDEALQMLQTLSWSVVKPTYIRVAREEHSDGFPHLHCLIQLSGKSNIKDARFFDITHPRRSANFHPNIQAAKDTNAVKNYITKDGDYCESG
# Protocol: as §1
# [4] = test system: T4, Rep nickase domain of chickpea chlorotic dwarf virus
# T4 sequence (protein, residues 1-124, tag omitted): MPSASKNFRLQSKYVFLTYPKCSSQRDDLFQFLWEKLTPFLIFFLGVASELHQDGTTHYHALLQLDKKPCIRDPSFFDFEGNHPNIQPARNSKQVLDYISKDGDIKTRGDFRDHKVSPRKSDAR
# Protocol: as §1
# [5] = test system: T5, Rep nickase domain of faba bean necrotic yellows virus
# T5 sequence (protein, residues 1-98, tag omitted): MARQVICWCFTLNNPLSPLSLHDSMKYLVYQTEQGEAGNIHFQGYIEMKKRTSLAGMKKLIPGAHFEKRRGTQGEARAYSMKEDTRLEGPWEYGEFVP
# Protocol: as §1
# [6] = test system: T6, Rep nickase domain of maize striate mosaic virus
# T6 sequence (protein, residues 1-117, tag omitted): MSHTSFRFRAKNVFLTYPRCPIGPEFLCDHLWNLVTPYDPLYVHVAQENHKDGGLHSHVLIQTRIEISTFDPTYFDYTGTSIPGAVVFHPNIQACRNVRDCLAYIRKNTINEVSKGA
# Protocol: as §1
# [7] = test system: T7, Rep nickase domain of porcine circovirus 2
# T7 sequence (protein, residues 2-116, tag omitted): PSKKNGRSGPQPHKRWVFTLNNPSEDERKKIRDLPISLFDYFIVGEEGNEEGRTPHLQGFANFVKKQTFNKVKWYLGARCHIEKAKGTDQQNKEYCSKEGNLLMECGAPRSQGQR
# Protocol: as §1
# [8] = test system: T8, Rep nickase domain of tomato golden mosaic virus
# T8 sequence (protein, residues 1-124, tag omitted): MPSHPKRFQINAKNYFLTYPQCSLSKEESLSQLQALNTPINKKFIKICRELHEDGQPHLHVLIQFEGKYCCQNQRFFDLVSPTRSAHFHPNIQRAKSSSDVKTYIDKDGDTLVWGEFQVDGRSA
# Protocol: as §1
# [9] = test system: T9, Rep nickase domain of tomato yellow leaf curl virus
# T9 sequence (protein, residues 1-136, tag omitted): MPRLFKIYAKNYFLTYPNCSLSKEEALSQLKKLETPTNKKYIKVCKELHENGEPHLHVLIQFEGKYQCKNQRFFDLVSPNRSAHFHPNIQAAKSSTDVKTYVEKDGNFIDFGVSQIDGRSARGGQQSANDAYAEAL
# Protocol: as §1
# [10] = test system: T10, Rep nickase domain of wheat dwarf virus
# T10 sequence (protein, residues 1-137, tag omitted): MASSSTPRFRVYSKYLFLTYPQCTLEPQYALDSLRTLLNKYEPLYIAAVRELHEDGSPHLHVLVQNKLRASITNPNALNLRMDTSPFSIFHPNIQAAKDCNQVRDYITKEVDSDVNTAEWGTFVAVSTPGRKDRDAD
# Protocol: as §1
Sequence,uncleaved DNA left (log2) [1],uncleaved DNA left (log2) [2],uncleaved DNA left (log2) [3],uncleaved DNA left (log2) [4],uncleaved DNA left (log2) [5],uncleaved DNA left (log2) [6],uncleaved DNA left (log2) [7],uncleaved DNA left (log2) [8],uncleaved DNA left (log2) [9],uncleaved DNA left (log2) [10]
ACAGTGC,-0.0461,-0.0485,-0.693,-0.264,0.0889,-0.933,0.194,-0.0397,0.0886,-0.139
CGGCCAG,0.000284,-0.0597,-0.26,-0.0172,-0.0711,-0.383,0.14,-0.126,-0.0377,-0.0213
CCTGGGA,-0.0866,-0.27,0.0515,0.16,-0.185,-0.108,-0.0537,-0.000274,-0.107,-0.157
TAGACAC,0.0865,0.15,0.405,0.814,0.0555,0.859,0.0701,-0.052,0.112,0.267
GCTCGTT,0.0978,0.0907,0.234,0.345,-0.0203,0.187,-0.0282,0.056,0.207,0.0142
GCAACGG,-0.00392,0.0143,0.47,1.42,0.00765,1.93,0.134,0.0971,-0.104,-0.0113
CTAGTCG,-0.0906,-0.199,-0.995,-0.303,-0.0884,-1.22,0.0694,-0.159,-0.00274,-0.191
AGATGCT,-1.19,-0.0751,-0.789,-1.45,-0.0566,-1.02,-3.32,-0.146,-0.0508,-0.307
TACCGGT,0.061,-0.034,0.265,-0.00328,-0.0367,0.741,-0.164,0.00349,-0.0294,-0.0377
ACCCGAC,0.0726,-0.029,0.0626,0.204,0.117,-0.499,0.0363,-0.0132,-0.0685,-0.00358
CCACGTA,0.000936,-0.0971,-0.141,-0.943,0.0314,-0.681,-0.0234,0.0173,-0.104,-0.1
GGAATCG,0.0373,-0.0316,-0.603,-0.285,-0.113,-0.694,0.0952,-0.00887,0.0776,-0.0224
TGATACA,0.0479,0.149,-1.52,-2.01,0.031,0.0458,-1.29,-0.552,0.131,-1.18
AGGTCGG,0.0655,0.0492,0.328,0.896,-0.0987,1.24,0.143,0.125,-0.144,-0.0281
AATAACG,0.0173,0.0385,-0.614,-0.159,0.128,-1.01,0.262,0.128,0.138,-0.013
CTGAAGA,0.147,0.0583,-0.182,-0.139,0.228,-1.01,0.211,0.0481,0.0623,0.0501
CCGATGC,0.0316,0.0014,-0.329,-0.44,0.0322,-0.878,0.194,-0.0502,0.0478,-0.0766
GAGCGGT,0.0868,-0.0614,0.0969,0.433,-0.0708,0.754,-0.397,0.0958,0.04,0.0178
CTCAACC,-0.353,-0.0177,-0.156,-2.01,0.0422,-0.789,-0.784,-0.146,-0.0566,-0.108
TTAAACC,0.0357,0.0374,0.16,-0.827,0.00305,-0.346,-0.715,0.0575,0.0563,0.0974
ACTTCCT,-0.213,-0.0707,-0.288,-2.41,-0.107,-0.67,-0.948,-0.0607,-0.097,-0.0491
TTTCGTA,-0.102,0.0691,-0.0694,-0.816,0.0187,-0.747,-0.252,-0.0414,-0.0995,0.0127
AAAAGAT,0.0653,-0.0268,0.073,1.13,-0.105,1.64,0.197,0.108,-0.138,0.00451
CGTTTAT,-0.286,-0.0726,0.187,-0.243,0.035,-0.18,-0.564,0.0916,-0.0155,0.036
TGCTAAC,0.0629,0.0424,0.235,0.219,0.0562,1.18,0.207,0.148,0.155,0.131
ATAAAGT,-0.0117,0.0756,0.0627,-0.608,-0.024,-0.939,-0.0716,0.0156,-0.0989,-0.0314
CAATAAT,-3.67,-2.4,-4.25,-4.07,-0.444,-3.77,-4.2,-4.05,-1.71,-4.13
TATATGG,0.0405,-0.00427,0.372,0.929,0.0276,0.783,0.153,0.0763,-0.0962,0.0136
GTAATAT,0.156,0.156,0.318,0.87,0.0414,1.84,0.187,0.202,0.112,0.0925
TCCATCA,-0.0301,0.176,0.32,-0.235,0.0502,-0.268,0.118,0.0863,0.184,0.269
